Assay results from the supplement of paper PMC10369915.
The list shows a part of the results. No stated cut-off is given here; in the data, active = 3.2 or more and inactive = the rest. The signal is at background level for most entries.

These binders were tested against SHP2 C-SH2 domain E139D (assay: enrichment score (SH2-bound / input frequency) (ratio); bacterial display of known human phosphotyrosine sites (pTyr-Var adds point mutants) read by sequencing; higher = stronger binding; tyrosines were phosphorylated by kinases first). Conditions: peptide library: Human pTyr.
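Further: displayed peptides selected on beads carrying the immobilized SH2 domain, with library peptides lacking any tyrosine serving as negative controls.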

Enrichment score, inactive:
GFDLDLTYIAPNIIA [PTEN_HUMAN_27_YA] 1.54
CPFRVAIYVPGEKPP [PR15A_HUMAN_512] 1.62
ADNDITPYLVSRFAR [PRP4B_HUMAN_849_YA] 1.02
FAKGAEDYLQSPLQP [PRMT5_HUMAN_307_YA] 0.531
AKCDPAGYACGFKAT [PSA6_HUMAN_159_YA] 1.04
YKCDPAGYYCGFKAT [PSA6_HUMAN_159] 1.79
VTRRTPDYFLGGGGG [PP2AA_HUMAN_307] 1.53
GFDLDLTYIYPNIIA [PTEN_HUMAN_27] 1.5
EDPVTVEYITRYIAS [PSMA7_HUMAN_106] 0.907
AELFAKGYEDALQSP [PRMT5_HUMAN_304_YA] 0.355
DVQKSKEYFSKQKGG [PRDX1_HUMAN_194] 1.31
GLINKKCYEMASHLR [PROF1_HUMAN_129] 1.44
FAKGYEDYLQSPLQP [PRMT5_HUMAN_307] 1.84
ADNDITPYLVSRFYR [PRP4B_HUMAN_849] 1.67
SDPRSWEYRSGEASE [PR15A_HUMAN_262] 0.739
MLGASGDYADFQALK [PSB4_HUMAN_102_YA] 0.433
GGMAERGYSFSLTTF [PSA2_HUMAN_6] 1.27
AERLEGVYRNNIDDV [PTEN_HUMAN_46] 0.929

The binders below were run against SHP2 C-SH2 domain wild-type in the same assay as above. Conditions: peptide library: Human pTyr.

Enrichment score, inactive:
GFDLDLTYIAPNIIA [PTEN_HUMAN_27_YA] 1.13
CPFRVAIYVPGEKPP [PR15A_HUMAN_512] 1.5
ADNDITPYLVSRFAR [PRP4B_HUMAN_849_YA] 0.854
FAKGAEDYLQSPLQP [PRMT5_HUMAN_307_YA] 0.519
AKCDPAGYACGFKAT [PSA6_HUMAN_159_YA] 0.937
YKCDPAGYYCGFKAT [PSA6_HUMAN_159] 1.91
VTRRTPDYFLGGGGG [PP2AA_HUMAN_307] 0.96
GFDLDLTYIYPNIIA [PTEN_HUMAN_27] 1.55
EDPVTVEYITRYIAS [PSMA7_HUMAN_106] 0.706
AELFAKGYEDALQSP [PRMT5_HUMAN_304_YA] 0.548
DVQKSKEYFSKQKGG [PRDX1_HUMAN_194] 1.1
GLINKKCYEMASHLR [PROF1_HUMAN_129] 1.34
FAKGYEDYLQSPLQP [PRMT5_HUMAN_307] 0.528
ADNDITPYLVSRFYR [PRP4B_HUMAN_849] 1.24
SDPRSWEYRSGEASE [PR15A_HUMAN_262] 0.625
MLGASGDYADFQALK [PSB4_HUMAN_102_YA] 0.459
GGMAERGYSFSLTTF [PSA2_HUMAN_6] 1.16
AERLEGVYRNNIDDV [PTEN_HUMAN_46] 0.753

These binders were tested against SHP2 N-SH2 domain L43F in the same assay as above. Conditions: peptide library: Human pTyr.

Enrichment score, inactive:
GFDLDLTYIAPNIIA [PTEN_HUMAN_27_YA] 1.04
CPFRVAIYVPGEKPP [PR15A_HUMAN_512] 1.22
ADNDITPYLVSRFAR [PRP4B_HUMAN_849_YA] 0.825
FAKGAEDYLQSPLQP [PRMT5_HUMAN_307_YA] 0.701
AKCDPAGYACGFKAT [PSA6_HUMAN_159_YA] 0.698
YKCDPAGYYCGFKAT [PSA6_HUMAN_159] 1.71
VTRRTPDYFLGGGGG [PP2AA_HUMAN_307] 0.676
GFDLDLTYIYPNIIA [PTEN_HUMAN_27] 1.31
EDPVTVEYITRYIAS [PSMA7_HUMAN_106] 0.877
AELFAKGYEDALQSP [PRMT5_HUMAN_304_YA] 0.443
DVQKSKEYFSKQKGG [PRDX1_HUMAN_194] 1.05
GLINKKCYEMASHLR [PROF1_HUMAN_129] 1.21
FAKGYEDYLQSPLQP [PRMT5_HUMAN_307] 1.1
ADNDITPYLVSRFYR [PRP4B_HUMAN_849] 0.915
SDPRSWEYRSGEASE [PR15A_HUMAN_262] 0.774
MLGASGDYADFQALK [PSB4_HUMAN_102_YA] 0.596
GGMAERGYSFSLTTF [PSA2_HUMAN_6] 1.11
AERLEGVYRNNIDDV [PTEN_HUMAN_46] 0.767

These binders were tested against SHP2 N-SH2 domain T42A in the same assay as above. Conditions: peptide library: Human pTyr.

Enrichment score, inactive:
GFDLDLTYIAPNIIA [PTEN_HUMAN_27_YA] 1.31
CPFRVAIYVPGEKPP [PR15A_HUMAN_512] 1.4
ADNDITPYLVSRFAR [PRP4B_HUMAN_849_YA] 0.681
FAKGAEDYLQSPLQP [PRMT5_HUMAN_307_YA] 0.524
AKCDPAGYACGFKAT [PSA6_HUMAN_159_YA] 0.839
YKCDPAGYYCGFKAT [PSA6_HUMAN_159] 1.84
VTRRTPDYFLGGGGG [PP2AA_HUMAN_307] 1.04
GFDLDLTYIYPNIIA [PTEN_HUMAN_27] 1.41
EDPVTVEYITRYIAS [PSMA7_HUMAN_106] 0.754
AELFAKGYEDALQSP [PRMT5_HUMAN_304_YA] 0.843
DVQKSKEYFSKQKGG [PRDX1_HUMAN_194] 1.04
GLINKKCYEMASHLR [PROF1_HUMAN_129] 1.24
FAKGYEDYLQSPLQP [PRMT5_HUMAN_307] 0.568
ADNDITPYLVSRFYR [PRP4B_HUMAN_849] 0.83
SDPRSWEYRSGEASE [PR15A_HUMAN_262] 0.591
MLGASGDYADFQALK [PSB4_HUMAN_102_YA] 0.577
GGMAERGYSFSLTTF [PSA2_HUMAN_6] 1.18
AERLEGVYRNNIDDV [PTEN_HUMAN_46] 0.843

Each binder was assayed against SHP2 N-SH2 domain T52S in the same assay as above. Conditions: peptide library: Human pTyr.

Enrichment score, inactive:
GFDLDLTYIAPNIIA [PTEN_HUMAN_27_YA] 1.23
CPFRVAIYVPGEKPP [PR15A_HUMAN_512] 1.66
ADNDITPYLVSRFAR [PRP4B_HUMAN_849_YA] 0.803
FAKGAEDYLQSPLQP [PRMT5_HUMAN_307_YA] 0.493
AKCDPAGYACGFKAT [PSA6_HUMAN_159_YA] 1.14
YKCDPAGYYCGFKAT [PSA6_HUMAN_159] 2.35
VTRRTPDYFLGGGGG [PP2AA_HUMAN_307] 0.909
GFDLDLTYIYPNIIA [PTEN_HUMAN_27] 1.38
EDPVTVEYITRYIAS [PSMA7_HUMAN_106] 0.567
AELFAKGYEDALQSP [PRMT5_HUMAN_304_YA] 0.761
DVQKSKEYFSKQKGG [PRDX1_HUMAN_194] 1.16
GLINKKCYEMASHLR [PROF1_HUMAN_129] 1.35
FAKGYEDYLQSPLQP [PRMT5_HUMAN_307] 0.526
ADNDITPYLVSRFYR [PRP4B_HUMAN_849] 1.04
SDPRSWEYRSGEASE [PR15A_HUMAN_262] 0.704
MLGASGDYADFQALK [PSB4_HUMAN_102_YA] 1.33
GGMAERGYSFSLTTF [PSA2_HUMAN_6] 1.27
AERLEGVYRNNIDDV [PTEN_HUMAN_46] 0.6

Each binder was assayed against SHP2 N-SH2 domain wild-type in the same assay as above. Conditions: peptide library: Human pTyr.

Enrichment score, inactive:
GFDLDLTYIAPNIIA [PTEN_HUMAN_27_YA] 1.24
CPFRVAIYVPGEKPP [PR15A_HUMAN_512] 1.91
ADNDITPYLVSRFAR [PRP4B_HUMAN_849_YA] 0.611
FAKGAEDYLQSPLQP [PRMT5_HUMAN_307_YA] 0.621
AKCDPAGYACGFKAT [PSA6_HUMAN_159_YA] 1.06
YKCDPAGYYCGFKAT [PSA6_HUMAN_159] 2.12
VTRRTPDYFLGGGGG [PP2AA_HUMAN_307] 1.06
GFDLDLTYIYPNIIA [PTEN_HUMAN_27] 1.74
EDPVTVEYITRYIAS [PSMA7_HUMAN_106] 0.842
AELFAKGYEDALQSP [PRMT5_HUMAN_304_YA] 0.384
DVQKSKEYFSKQKGG [PRDX1_HUMAN_194] 1.28
GLINKKCYEMASHLR [PROF1_HUMAN_129] 1.32
FAKGYEDYLQSPLQP [PRMT5_HUMAN_307] 0.604
ADNDITPYLVSRFYR [PRP4B_HUMAN_849] 1.44
SDPRSWEYRSGEASE [PR15A_HUMAN_262] 0.616
MLGASGDYADFQALK [PSB4_HUMAN_102_YA] 0.496
GGMAERGYSFSLTTF [PSA2_HUMAN_6] 1.45
AERLEGVYRNNIDDV [PTEN_HUMAN_46] 0.772
